# Data as given in PubChem BioAssay AID1508623 (National Center for Advancing Translational Sciences (NCATS), 2021).
# The campaign covered roughly 48,000 compounds. About 450 (0.94%) were called active. Inconclusive results (about 19%) are left out. The call rests on the fitted dose curve; in most records, active means well fitted inhibition curve with a large enough effect; inconclusive means small, poorly fitted or top-dose-only effect; inactive means no such curve, though single readings can be large or run the other way. This is one part of the list.
# Test: Primary qHTS for Identification of Small Molecule Inhibitors of Huntingtin Promoter Activity; further: nearly all actives have a fitted effect of over 50% in size
# Details: HEK293 HTT promoter firefly luciferase reporter (activity 0% = vehicle and -100% = no light), 24 h; series mostly up to 57.5 µM; activity change, negative = inhibition: at the top concentration
# Procedure, shortened: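 Luminescence was read after Dual-Glo reagent and a 10 min room-temperature incubation. Values were normalized to vehicle (0% activity) and zero RLU (-100% activity). Reporter HEK293 cells had been exposed to compounds (up to 57.5 uM final) for 24 h.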
row,SMILES,"activity change, negative = inhibition"
1,Cc1ccc(-n2nnnc2CNC(=O)c2ccc(F)cc2)cc1C,inactive: 0.879%
2,COc1ccccc1-c1nn2c(=O)cc(CN3CCN(S(=O)(=O)c4ccc(C)cc4)CC3)nc2s1,inactive: -8.91%
3,Cc1cc(=O)n(-c2ccccc2)n1C,inactive: 3.9%
4,CCOC(=O)c1ccc(NC(=O)C2Cc3ccccc3C(=O)O2)cc1 (stereo not given),inactive: 35.4%
5,Brc1ccc(CNCCCSc2nnnn2-c2ccccc2)cc1,inactive: 1.26%
6,Cc1cccc(-c2noc(CNC(=O)c3ccco3)n2)c1,inactive: 1.42%
7,CC(=O)Nc1ccc(C)cc1-c1nc2ccccc2n(CC(=O)c2ccc(Cl)cc2)c1=O,inactive: -5.41%
8,CC(=O)N(Cc1cccnc1)c1nc2ccc(F)cc2s1,inactive: -14%
9,COc1cccc2cc(-c3cn4c(n3)sc3cc(F)ccc34)c(=O)oc12,inactive: -4.06%
10,CCOc1ccccc1C(=O)N1CCN(CCc2ccccn2)CC1,inactive: 3.57%
11,Cc1ccc(CNC(=O)NC2COc3ccccc3C2)cc1 (stereo not given),inactive: 3.51%
12,Cc1ccc(C2=Nc3ccccc3N(CC(=O)Nc3ccccc3C)C(=O)C2)cc1C,inactive: 61.9%
13,Cc1c(Cl)cccc1NC(=O)Cn1nc(C(F)(F)F)c2c1CCC2,inactive: -18.4%
14,Cc1cc(C)c(NC(=O)Cn2c(=O)n(CCc3ccccc3)c(=O)c3ccccc32)c(C)c1,inactive: -0.66%
15,Cc1ccc(N2CCn3c2nc2c3c(=O)n(CCCc3ccccc3)c(=O)n2C)cc1,inactive: -5.02%
16,Clc1ccc(COC(Cn2ccnc2)c2ccc(Cl)cc2Cl)c(Cl)c1 (stereo not given),inactive: -20.9%
17,COc1ccc(OC)c(CNC(=O)c2ccccc2NC(=O)c2nsc3ccccc23)c1,inactive: 2.65%
18,Cc1cc(C)n(-c2nc3ccccc3nc2Nc2cccc(C(=O)NCCc3ccccc3)c2)n1,inactive: -5.79%
19,Cc1ccc(NC(=O)C2CCCN(S(=O)(=O)c3cccc4cccnc34)C2)c(Br)c1 (stereo not given),inactive: -27.8%
20,CC1=C(C(=O)Nc2ccccc2)C(c2cccc(O)c2)n2nc(-c3ccccc3Cl)nc2N1 (stereo not given),inactive: -9.72%
21,Cc1onc(-c2ccccc2Cl)c1C(=O)Oc1ccc(Br)cc1,inactive: -9.23%
22,C#CCn1c(/C=C/c2ccc(Cl)cc2)nc2ccccc21,inactive: 14.3%
23,CCN(c1ccc(OC)cc1)S(=O)(=O)c1nnc(NC(=O)COc2ccc(F)cc2)s1,inactive: -20.5%
24,CC(C)CC(=O)NCC(c1ccc2c(c1)OCO2)N1CCN(c2ccccc2F)CC1 (stereo not given),inactive: -12.2%
25,Cc1ccccc1N(C)C(=O)c1noc2c1COc1ccccc1-2,inactive: 39.5%

row,SMILES,"activity change, negative = inhibition"
1,CCCN(CCc1cccs1)[C@H]1CCc2c(O)cccc2C1,inactive: 3.98%
2,O=C(CCn1c(=O)c2cccn2c2cccnc21)NCc1ccccc1Br,inactive: 6.14%
3,CCC(=O)Nc1ccc(C)cc1-c1nc2ccccc2n(C(C)C(=O)Nc2ccccc2CC)c1=O (stereo not given),inactive: -22.7%
4,CCC(CC)C(=O)Nc1ccc(C(=O)OCc2cc(=O)n3nc(C4CC4)sc3n2)cc1,inactive: -4.88%
5,Cc1ccc(-n2nc(C(=O)N3CCN(c4ccccc4F)CC3)c3c4ccccc4n(C)c3c2=O)cc1,inactive: -7.57%
6,O=C(NCc1ccccc1Cl)c1cccn1-c1nnc(N2CCCCC2)s1,inactive: -26.1%
7,CCC(C(=O)N1CCN(c2cc(Cl)ccc2C)CC1)n1nc(C)c2sc3ccccc3c2c1=O (stereo not given),inactive: -0.226%
8,CCN(CC)CCCNC(=O)CCCn1c(=O)[nH]c2ccc(Br)cc2c1=O,inactive: -4.61%
9,CC(=O)c1ccccc1NS(=O)(=O)c1cc2c(cc1C)NC(=O)CO2,inactive: 15.4%
10,Fc1cccc(Cl)c1CNc1n[nH]c(-c2ccco2)n1,inactive: 47%
11,Cc1ccc(Cl)cc1N1CCN(C(=O)c2cccn2-c2nnc(N3CCCCC3)s2)CC1,inactive: -53.2%
12,COc1cc(Cl)ccc1OC(=O)c1cn(-c2ccccc2OC)c(=O)c2ccccc12,inactive: -6.32%
13,CC1C(=O)Nc2ccc(S(=O)(=O)Nc3ccccc3Br)cc2NC1=O (stereo not given),inactive: -7.72%
14,CC(C)CCNC(=O)c1ccc(Cn2c(SCC(=O)NC(C)C)nc3ccccc3c2=O)cc1,inactive: -5.48%
15,Cc1cc(NC(=O)c2ccc(-c3ccc(Br)cc3)o2)cc(-c2nc3ncccc3o2)c1O,inactive: -8.98%
16,Cc1c(-c2ccccc2)c(=O)oc2c(CN3CCN(C)CC3)c(O)ccc12,inactive: -12.7%
17,Cc1ccc2nc(Cl)c3cc(C(=O)NCCCN4CCC(C)CC4)sc3c2c1,inactive: 2.35%
18,COc1ccc2c(c1)c1c(c(=O)n(-c3ccccc3)c(=O)n1CC(=O)Nc1ccc(F)cc1)n2C,inactive: -10.4%
19,COc1ccc(N2CC(NC(=O)c3ccc4c(c3)OCO4)CC2=O)cc1OC (stereo not given),inactive: -11.8%
20,CCCCN(C)CC(O)Cn1cc(/C=C/C(=O)c2ccc(OC)c(OC)c2)c2ccccc21 (stereo not given),inactive: -4.82%
21,CCCn1ccc2c(OCC(=O)NCc3ccc(F)cc3)cccc2c1=O,inactive: -10.7%
22,COc1ccc(CNC(=O)Cn2nnc(-c3ccccc3F)n2)cc1,inactive: -5.25%
23,CCc1cc2c(cc3c(=O)n(CC(=O)N4CCCCC4)nc(CC)n32)s1,inactive: -14%
24,CC(C)(C)C(=O)NCCCC(=O)O,inactive: 11.7%
25,COc1ccc(Cl)cc1C(=O)Nc1ccc2oc(-c3ccc(C(C)(C)C)cc3)nc2c1,inactive: -3.18%

row,SMILES,"activity change, negative = inhibition"
1,CCCSC1=NC2(CCN(C(=O)NC3CCCCC3)CC2)N=C1c1ccccc1,inactive: -18.4%
2,NC12CC3CC(CC(C3)C1)C2,inactive
3,CC(C)c1nnc(NC(=O)c2nc(SCc3ccc(F)cc3)ncc2Cl)s1,inactive: -20.6%
4,CCCSc1ncc(Cl)c(C(=O)Nc2sc3c(c2C(=O)NCC)CCCC3)n1,inactive: -12%
5,CSc1ncc(Cl)c(C(=O)Nc2nc3ccc(F)cc3s2)n1,inactive: -7.22%
6,CCN1CCN(C(=O)c2ccc3c(c2)N(Cc2ccccc2)C(=O)c2ccccc2S3=O)CC1 (stereo not given),inactive: -14.1%
7,COc1ccc(OC)c(-c2nc(C(N)=O)c3c(n2)n(-c2ccc4c(c2)OCO4)c(=O)n3C)c1,inactive: -13.2%
8,Cc1nn(CCCC(=O)NCc2cccc(F)c2)c(=O)c2nn(-c3ccccc3)c(C)c12,inactive: -10.8%
9,Cc1ccc(NC(=O)CN(C)S(=O)(=O)c2ccc3c(c2)CCC(=O)N3)c(C)c1,inactive: -10.3%
10,Cc1ccc(NC(=O)Cn2nc(-c3ccc(F)cc3)c3cnc4ccc(C)cc4c32)cc1,inactive: 8.98%
11,CCCN1CCN(c2ncc3c(n2)CCN(Cc2ccc(OC)c(OC)c2OC)C3)CC1,inactive: -15.9%
12,COc1ccccc1-c1noc(-c2ccc(N(C)Cc3ccccc3)c([N+](=O)[O-])c2)n1,inactive: -11.7%
13,COc1ccccc1C(=O)c1c(N)c(-c2nc(-c3ccccc3)cs2)c2ccccn12,inactive: -12.7%
14,CCCCN(CC)C(=O)CCn1c(=O)c2cccn2c2cccnc21,inactive: 1.03%
15,CCCCNC(=O)CN1C(=O)CSc2ccc(S(=O)(=O)N3CCC(C)CC3)cc21,inactive: -9.74%
16,CC(=O)c1cccc(N(C(=O)Cn2nnc3ccccc32)C(C(=O)NCc2ccccc2)c2ccc(F)cc2)c1 (stereo not given),inactive: -8.08%
17,Cc1onc(-c2ccc(Br)cc2)c1C(=O)Nc1ccc(Br)cc1F,inactive: 14.1%
18,COc1ccc(-n2c(SCC(=O)Nc3nnc(C)s3)nc3c([nH]c4ccccc43)c2=O)cc1,inactive: -20%
19,CC(C)N(C(=O)c1cc2c(Cl)nc3ccccc3c2s1)C1CCCCC1,inactive: 3.01%
20,COc1cccc(CNc2ncc(-c3ccc(Br)cc3)n2C)c1,inactive: -20.1%
21,Cc1cccc(C(=O)Nc2cc3c(cc2N2CCOCC2)n(C)c(=O)n3C)c1,inactive: 4.03%
22,CCOC(=O)c1ccccc1Nc1cc(C)nc2nc(-c3ccco3)nn12,inactive: -16.5%
23,O=C(NCCCN1CCN(c2ccccc2)CC1)c1nnc(Cc2ccc(F)cc2)o1,inactive: -28.9%
24,Nc1c(-c2nc(-c3ccccc3)cs2)c2ccccn2c1C(=O)c1ccc2c(c1)OCO2,inactive: -10.3%
25,CCOc1ccc(NC(=O)Cn2cc(C(=O)c3ccc(C)cc3)c(=O)c3cc4c(cc32)OCCO4)cc1,inactive: -4.5%

row,SMILES,"activity change, negative = inhibition"
1,O=C(O)CC(NS(=O)(=O)c1ccc(Br)s1)c1ccccc1 (stereo not given),inactive: 8.91%
2,CC1=C(C(=O)Nc2cc(C)ccc2C)C2(CCCCCC2)OC1=O,inactive: 0.0374%
3,CC(C)OCCCN(C)C1CCN(S(=O)(=O)c2csc(C(N)=O)c2)CC1,inactive: -4.81%
4,COc1ccc(-n2c(C)nc3cc(C(=O)NC4CCCC4)ccc32)cc1,inactive: -22.4%
5,Cc1cccc(-c2nnc(SCC(=O)N3CCCc4ccccc43)o2)c1,inactive: -21.5%
6,CSc1cccc(NC(=O)Cn2nc(C)c3sc4ccccc4c3c2=O)c1,inactive: -21.4%
7,Cc1ccc(S(=O)(=O)c2nnn3c2nc(NCc2cccs2)c2sccc23)cc1C,inactive: -7.87%
8,COC(=O)C(C)NC(=O)N1CCN(c2nnc(C)c3c(C)n(-c4ccc(Cl)cc4)nc23)CC1 (stereo not given),inactive: -8.08%
9,CCCCCCCCCCCCCCCC(=O)NCCO,inactive: -1.27%
10,Cc1cccc(CS(=O)(=O)c2ncc(Cl)c(C(=O)Nc3nc4ccc(F)cc4s3)n2)c1,inactive: -10.5%
11,Cc1ccc(C)c(NS(=O)(=O)c2ccc3c(c2)n(C)c(=O)n3C)c1,inactive: -31.8%
12,CN1CCN(C2=Nc3cc(Cl)ccc3Nc3ccccc32)CC1,inactive: -27.9%
13,CC(C)NC(=O)N1CCC(N2CCN(Cc3ccc(F)cc3)C(=O)C2=O)CC1,inactive: 3.07%
14,CCc1nc2onc(C)c2c(=O)n1CC(=O)O,inactive: -13%
15,Cc1ccccc1-c1nc(CS(=O)(=O)CC(=O)Nc2cccc(C(F)(F)F)c2)c(C)o1,inactive: -31.2%
16,COc1ccc2c(c1)c1c(c(=O)n(Cc3ccccc3)c(=O)n1CC(=O)Nc1c(C)cccc1C)n2C,inactive: -14.2%
17,CCn1c(SCC(=O)N2CCC(C)CC2)nnc1-c1ccccc1O,inactive: -20.3%
18,Cc1oc(-c2cccc(Br)c2)nc1Cn1c(=O)cc(-c2ccccc2)c2c(C)nn(C)c21,inactive: 8.06%
19,COc1ccc(N2CCN(Cc3cc(=O)oc4ccc(OC)cc34)CC2)cc1,inactive: -7.53%
20,CCc1ccccc1Nc1cc(C(=O)NCCc2ccccc2)c2ccccc2n1,inactive: -13.3%
21,COc1ccccc1NC(=O)C1=C(C)Nc2nc3ccccc3n2C1c1cccc(Br)c1 (stereo not given),inactive: -20.8%
22,O=C(Cn1c(=O)n(-c2ccc(F)cc2)c(=O)c2sc3ccccc3c21)NC1CCCCC1,inactive: -10.9%
23,CCOC(=O)c1ccc2c(c1)N(Cc1cccc(C(F)(F)F)c1)C(=O)c1ccccc1S2(=O)=O,inactive: -6.92%
24,CCCOc1ccc(Nc2cc(C)nc(C)n2)cc1,inactive: 25%
25,COc1ccc(OC)c(CCNc2nccn(-c3ccc(C)c(C)c3)c2=O)c1,inactive: -40.6%
